As a reminder, the inhibition is the relative decrease from the control value, in per cent.

Values joined by “and” are separate entries in the source; they are usually repeats but may differ in a detail not shown here. Equal entries are not always repeated. The campaign covered roughly 340,000 compounds. About 6,900 (2%) were called active. No stated cut-off is given here; in the data, active means inhibition above about 30%; inactive means below that, where a call was filed. This is a selection; strong and weak results do not stand in their true shares. Entries without a call were filed so in the source.

Chain of UniProt P14416 (P14416 whole entry, looked up): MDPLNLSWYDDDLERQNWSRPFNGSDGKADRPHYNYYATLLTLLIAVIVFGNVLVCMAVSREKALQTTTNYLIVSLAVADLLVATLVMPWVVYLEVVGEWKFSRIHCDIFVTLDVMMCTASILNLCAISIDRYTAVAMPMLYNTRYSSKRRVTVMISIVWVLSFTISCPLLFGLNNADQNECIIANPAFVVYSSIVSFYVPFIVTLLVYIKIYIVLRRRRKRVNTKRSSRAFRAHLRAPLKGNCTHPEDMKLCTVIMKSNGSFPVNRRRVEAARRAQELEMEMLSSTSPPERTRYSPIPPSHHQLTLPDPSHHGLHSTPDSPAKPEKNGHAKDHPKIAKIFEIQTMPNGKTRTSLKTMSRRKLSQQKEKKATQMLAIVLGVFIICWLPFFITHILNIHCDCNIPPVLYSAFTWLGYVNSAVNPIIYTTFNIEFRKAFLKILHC

This assay deals with D(2) dopamine receptor (Homo sapiens) (UniProt P14416). Description: HTS Assay for Allosteric Antagonists of the Human D2 Dopamine Receptor: Primary Screen for Antagonists. Further: 0% is about no effect. As to conditions: HEK293 TREx D2 cells, calcium flux, dopamine EC80; at 10 µM; stronger effect = higher value. The method in brief:
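Antagonism is scored as inhibition of an EC80 dopamine-evoked calcium signal in a force-coupled, tetracycline-inducible HEK293 T-REx D2 line, with compound present 180 s before agonist.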
A general note: Calcium assays in cells follow changes in intracellular calcium, usually with a dye or a luminescent sensor.
Turning to `COc1cc(NS(=O)(=O)c2ccc3c(c2)OCC(C(=O)N2CCCC2)O3)cc(OC)c1` (configuration not stated), the inhibition is -9.62%. As for `Cc1ccc(NC(=O)Cn2nc(-c3ccc(Cl)cc3)c3ccccc3c2=O)cc1`, the inhibition is 4.77%. With `CCN(CC)c1ccc(NC(=O)C2CCCN(S(=O)(=O)c3ccc4c(c3)oc(=O)n4C)C2)c(C)c1` (configuration not stated) the figure was 12.2%; with `O=C(Nc1nncs1)c1ccc(Br)c(S(=O)(=O)N2CCCC2)c1`, active: 55.9%; with `COc1cc(OC)cc(C(=O)OCC(=O)Nc2ccc3[nH]c(=O)[nH]c3c2)c1`, active: 35.5%.

Consider `CCC(Sc1nc2n[nH]c(C)c2c(=N)n1-c1ccc(Br)cc1)C(=O)N(CC)CC` (configuration not stated), for which the inhibition is 2.63%. With `CCOC(=O)c1c(S(=O)(=O)N2CCN(c3cc(Cl)ccc3C)CC2)c(C)n(C)c1C` the figure was 3.75%; with `Cc1cc(C)cc(NC(=O)C2CCCN(c3nnc(-n4c(C)ccc4C)s3)C2)c1` (configuration not stated), 6.28%. For the compound `COc1ccc(N2CCN(C(=O)c3cc4c(s3)-c3c(C)cccc3OC4)CC2)cc1`, the inhibition was -2.25%.

On to `CCCc1ccc(OC(=O)c2sc3ncn(Cc4cccc(F)c4)c(=O)c3c2C)cc1`, for which the inhibition came out at 7.98%. Next, `CCCCN(C(=O)Nc1ccc(OCC)cc1)C1CCN(C(C)=O)CC1`: 11.4%; `COCCn1c(SCC(=O)Nc2ccc(Br)cc2)nc2c([nH]c3ccccc32)c1=O`: -16.9%. Turning to `Cc1ccc(-c2onc(C)c2C)cc1S(=O)(=O)N1CCc2ccccc21`, the inhibition was found to be 10.9%. `COC(=O)c1ccc(NC(=O)C(c2ccccc2)N2Cc3ccccc3C2=O)cc1` (configuration not stated): the inhibition was -7.39%. With `CN1CCN(c2ccc(-c3nc(-c4ccccc4)no3)cc2[N+](=O)[O-])CC1` the figure was -6.62%; with `Cc1cccc(CCNC(=O)CCc2c(C)nc3c(-c4ccc(F)cc4)c(C)nn3c2C)c1`, -9.85%; with `CCOc1ccc(OCCSc2ccc(S(=O)(=O)N3CCN(C)CC3)cn2)cc1`, active: 30.3%.

As to `Cc1nc(-c2ccc(Cl)cc2)sc1CCNC(=O)C(=O)Nc1ccccc1C#N`, the inhibition amounted to 14.5%.

Take `CC(C)(C)c1cc(C(=O)NNC(=O)Nc2cccc(Cl)c2)n(Cc2ccccc2)n1`: the inhibition is active: 49.7%. In the case of `CC1=Nn2c(nc3sc4c(c3c2=O)CCCC4)SC1`, the inhibition is active: 54.8%. Next, `COCCNC(=O)c1sc2nc3n(c(=O)c2c1C)CCC3`: 13.1%; `COc1ccc(N2CC(c3nc(-c4ccccc4C)no3)CC2=O)cc1Cl` (configuration not stated): -10.2%. Take `CCc1ccc(NS(=O)(=O)c2ccc3[nH]cc(C(=O)NCCc4ccccc4)c(=O)c3c2)cc1`: the inhibition was -5.12%. Take `CCOC(=O)c1cccc(NC(=O)Cn2cnc3nc4c(cc3c2=O)CCCC4)c1`: the inhibition amounted to 5.35%.

Take `CCN(CC)CCCNC(=O)c1ccc2c(c1)NC(=O)C(CS(=O)(=O)Cc1ccc(F)cc1Cl)N2` (configuration not stated): the inhibition is 11.2%. With `COc1cccc(-c2noc(COc3cccc(C)c3C)n2)c1`, the inhibition was -1.37%.

As to `Cc1ccc2nc(N3CCN(c4ccc(F)cc4)CC3)c3nnnn3c2c1`, the inhibition was -1.77%. Turning to `Cc1ccc(C(c2cc(Cl)c3cccnc3c2O)N2CCN(C)CC2)cc1` (configuration not stated), the inhibition is active: 38.6%.

Consider `CCOC(=O)c1c(NC(=O)COc2ccc(OC)cc2)sc(C(=O)N(CC)CC)c1C`, for which the inhibition stood at 2.15%. Next, `N#C/C(=C\c1ccccc1)c1nc(-c2cc3c(ccc4ccccc43)oc2=O)cs1`: -2.43%; `CCCCN(CC)CCNC(=O)c1nn(-c2ccc(OC)cc2)c(=O)c2c1c1ccccc1n2C`: 0.79%. With `Fc1ccc(CN2CCN(c3ncccn3)CC2)cc1`, the inhibition was active: 83.7%. For the compound `Cc1cccc(CNC(=O)C2CCN(S(=O)(=O)c3cccc4nonc34)CC2)c1`, the inhibition worked out at 20.4%.

As for `CCC1=Nc2cc(C(=O)N3CCC(C)CC3)ccc2Sc2ccc(C)cc21`, the inhibition turned out to be 1.53%. For the compound `Cc1ccc(C)c(NC(=O)C2CCCN2S(=O)(=O)c2ccc3c(c2)CCCC(=O)N3)c1` (configuration not stated), the inhibition was -1.81%. Next, `COCCNc1sc(S(=O)(=O)c2ccc(C)cc2)nc1S(=O)(=O)c1ccc(C)cc1`: -3.04%; `CC(=O)Nc1ccc(NC(=O)CSc2nccn2C)cc1`: -20.9%. Take `N#Cc1ccc(C(c2ccc(C#N)cc2)n2cncn2)cc1`: the inhibition is active: 48.6%. With `CCCN(C(=O)c1noc2c1COc1ccc(C)cc1-2)c1ccc(Cl)c(Cl)c1`, the inhibition came to 1.5%. Next, `CCOC(=O)c1cc2c(=O)n3ccccc3nc2n(CC(C)C)c1=NC(=O)c1c(-c2c(F)cccc2Cl)noc1C`: -10.7%; `COC(=O)c1ccccc1NC(=O)c1c(NC(=O)c2ccco2)sc2c1CCC(C(C)(C)C)C2` (configuration not stated): -5.4%; `CCCCN(CC)CCNC(=O)Cn1cc2c(n1)-c1c(oc(C(=O)N3CCCC3)c1C)CC2`: 1.77%.

`CN(C(=O)CSc1cn(CC(=O)N2CCOCC2)c2ccccc12)c1ccccc1`: the inhibition was -3.36%. Take `CC(=O)N1CCCc2cc(S(=O)(=O)N3CCC(C(=O)NCc4cccc(C)c4)CC3)ccc21`: the inhibition was determined as 16.4%. For `COc1cccc(Cn2c(=O)n(Cc3ccco3)c(=O)c3oc4ccccc4c32)c1`, the inhibition turned out to be 6.63%.

As for `CC(=O)CCc1ccc(OCCCCN2CCC(Cc3ccccc3)CC2)cc1`, the inhibition is active: 54.2%.

Consider `CCCOc1cccc(C(=O)N(Cc2ccc(C)o2)C2CCS(=O)(=O)C2)c1` (configuration not stated), for which the inhibition is 5.03%.

Turning to `CN1/C(=C/C=N/n2cnnc2)C(C)(C)c2ccccc21`, the inhibition was active: 56.3%. Next, `COc1ccc(Cl)cc1NC(=O)CN1C(=O)COc2ccc(S(=O)(=O)NC3CCCC3)cc21`: -13.8%; `Cc1ccc(-c2nnc(Nc3ccc(O)cc3)c3ccccc23)cc1S(=O)(=O)N1CCOCC1`: 7.84%; `COc1ccc(-c2cc(C(=O)Nc3c(C)nn(Cc4ccc(C)cc4)c3C)no2)cc1OC`: 3.75%. With `Cc1ccc(Nc2nn3c(=O)c4cc5c(cc4nc3s2)OCO5)cc1Cl` the figure was 14.4%; with `CCOC(=O)c1cc(-c2ccccc2)n(-c2cccc(C(=O)Nc3ccc(OCC)cc3)c2)c1C`, 7.98%; with `COc1cccc(NS(=O)(=O)c2ccc(-c3cc(C)no3)s2)c1`, 3.49%.

In the case of `COc1cc(NS(=O)(=O)c2ccc3[nH]c4c(c3c2)CCCCCC4)cc(OC)c1`, the inhibition is -8.74%. For the compound `CCc1ccc(NC(=O)C(CC)n2c(=O)c(C(F)(F)F)nc3ccccc32)cc1` (configuration not stated), the inhibition was 4.21%. For the compound `Cc1ccc(NC(=O)CC(C)S(=O)(=O)c2ccc3c(c2)NC(=O)CO3)cc1Cl` (configuration not stated), the inhibition came to 22.5%. With `Cc1nc2nc(SCC(=O)NCc3ccccc3Cl)nn2c(C)c1Cc1ccccc1` the figure was 5.62%; with `CCOC(=O)Cn1c(=O)c2c(nc3n2CCN3c2ccc(CC)cc2)n(C)c1=O`, 16.3%.

Consider `COc1cc(Cl)c(C)cc1Nc1ncnc2c1nc1n2CCCC1`, for which the inhibition was found to be 16.1%. Next, `Cc1ccc(-c2nc(SCC(=O)NCc3ccco3)c3c(=O)n(C)c(=O)n(C)c3n2)cc1`: -6.16%; `CCc1cccc(CC)c1NC(=O)CN1C(=O)C(=O)c2ccccc21`: 7.3%; `CC(C)c1ccc(NC(=O)Cn2c(=O)n(CCc3ccccc3)c(=O)c3ccccc32)cc1`: -2.64%. Next, `Cc1ccc(Nc2nnc(-c3ccc(C)c(S(=O)(=O)NCc4nc5ccccc5[nH]4)c3)c3ccccc23)cc1`: -7.01%; `CC1CCCC(NC(=O)CC2Nc3ccccc3NC2=O)C1C` (configuration not stated): active: 30.5%.

In the case of `Cc1ccc(C(=O)Nc2cccc(-c3nc4ccccc4o3)c2)c(Cl)c1`, the inhibition was -6.46%. Next, `Cc1ccccc1OCC(O)Cn1c(=N)n(CCN2CCCCC2)c2ccccc21` (configuration not stated): 3.4%; `CC(C)COc1ccc(C(=O)N(Cc2ccc(N(C)C)cc2)Cc2ccco2)cc1`: -6.04%; `CCc1ccc(NC(=O)CCS(=O)(=O)c2ccc3c(c2)n(C)c(=O)c(=O)n3C)cc1`: 1.74%. Consider `Cc1ccc(/C=C/c2nc3ccccc3[nH]2)cc1`, for which the inhibition was -23%. For `CC1CCCCN1c1nnc(NC(=O)Nc2ccccc2F)s1` (configuration not stated), the inhibition was -8.13%. Take `CCC(Cn1nnc2ccccc2c1=O)NC(=O)Nc1ccc(C)c(C)c1` (configuration not stated): the inhibition is -0.0057%. Next, `O=C(CCN1CCN(c2ccccc2)CC1)NNC(=S)Nc1ccccc1Cl`: active: 66.3%. Turning to `COCCCNC(=O)CSc1nc2cc(OC)c(OC)cc2c2nc(-c3ccccc3)nn12`, the inhibition was -1.41%. With `Cc1ccc(OCc2nc3ccccc3n2CCOc2ccc(Cl)cc2)cc1` the figure was 2.56%.

For the compound `CC1CCCN(C(=O)c2cc3c(Cl)nc4ccccc4c3s2)C1` (configuration not stated), the inhibition is -1.41%.

`CS(=O)(=O)CCC(C(=O)Nc1cccc(C(F)(F)F)c1)N1Cc2ccccc2C1=O` (configuration not stated): the inhibition is -12.5%. Next, `Cc1ccc(CNS(=O)(=O)c2cc3c(cc2C)NC(=O)CO3)cc1`: 11.1% and active: 47.5%; `CN(CC(=O)Nc1cccc(C(F)(F)F)c1)S(=O)(=O)c1cccs1`: -2.11%. `O=C(Cn1c(-c2cccs2)cc2ccccc21)NCCc1ccc(Cl)cc1`: the inhibition is 0.26%.

On to `Cc1nc(SCC(=O)Nc2ccccc2Cl)oc1C`, for which the inhibition is active: 31.2%.

For `COC(=O)C(C)Sc1ncnc2c1c(-c1ccccc1)cn2-c1ccc(F)cc1` (configuration not stated), the inhibition is -20%. As to `CCOc1ccc(S(=O)(=O)Nc2ccc3c(c2)N(C(C)=O)CCC3)cc1`, the inhibition was -22.7%. Next, `CCOc1ccccc1NC(=O)c1cc2c(=O)oc3ccccc3c2s1`: -0.0974%; `O=C(c1ccc(CSc2nc3ccncc3n2Cc2cccc(F)c2)cc1)N1CCCCCC1`: 7.43%. With `Cc1cncn1CCc1nc2c3ccccc3nc(SCC(=O)Nc3cccc(Cl)c3)n2n1` the figure was -17.7%; with `COc1ccc(OC)c(NC(=O)c2c(NCc3cccs3)sc3c2CCCC3)c1`, 6.61%; with `Cc1ccc(Cn2c(=O)n(CCCC(=O)NCc3ccccc3Cl)c(=O)c3ccccc32)cc1`, 10.4%. Next, `Cc1ccc(NC(=O)C2CCN(c3nc4ccccc4[nH]3)CC2)c(C)c1`: -8.62%; `COC(=O)c1cnc(N2CCN(c3ccccc3F)CC2)c2ccccc12`: -6.52%; `COCCN1C(=O)c2[nH]nc(-c3cc(C)ccc3O)c2C1c1ccc(C(C)C)cc1` (configuration not stated): -0.0327%. On to `Cc1cccc(N2CCN(C(=O)CCc3c(C)nc4ncnn4c3C)CC2)c1C`, for which the inhibition was 1.04%.

Turning to `CCc1ccccc1NC(=O)c1cc(S(=O)(=O)N2CCCC2)cn1C`, the inhibition was -11.2%. As to `CC(C)c1cccc(C(C)C)c1NC1=NS(=O)(=O)c2ccccc21`, the inhibition stood at 7.53%.

Take `COc1ccccc1NC(=O)NCCN1CCN(c2cccc(Cl)c2)CC1`: the inhibition was active: 53.2%. With `CCOC(=O)c1noc2ncnc(N3CCC(C)CC3)c12` the figure was 6.55%; with `COc1cccc(C(=O)CSc2nc3cccnc3n2C)c1`, active: 37.5%.

The values above are taken from PubChem BioAssay AID485344 (National Center for Advancing Translational Sciences (NCATS), 2010).
